Reference: US20250032630A1, “B7H4 ANTIBODY-DRUG CONJUGATE AND USE THEREOF” (Duality Biologics (Suzhou) Co., Ltd., priority 2022, published 2025)

Experiments:
[1] = system: MDA-MB-468 cells subcutaneous xenograft; experiment: Pharmacodynamic evaluation in MDA-MB-468 tumor-bearing mice; format: in vivo; details: for Tumor volume: mean ± standard error
human B7H4 [2] = molecular target: T1, human B7H4 (Homo sapiens, UniProt Q7Z7D3); experiment: Species cross-reactivity, flow cytometry binding to B7H4-transfected HEK293T cells; parameters: expressed in transfected cells; host or cells: HEK293T; details: Human B7H4-293T
T1 sequence (Q7Z7D3 25-282): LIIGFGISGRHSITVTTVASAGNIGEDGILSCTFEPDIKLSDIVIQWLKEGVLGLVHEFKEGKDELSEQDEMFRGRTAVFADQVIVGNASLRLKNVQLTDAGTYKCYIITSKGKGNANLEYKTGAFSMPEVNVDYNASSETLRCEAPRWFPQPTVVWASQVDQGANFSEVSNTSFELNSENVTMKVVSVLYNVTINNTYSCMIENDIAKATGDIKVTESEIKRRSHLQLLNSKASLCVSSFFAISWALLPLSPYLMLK

human B7H4 [3] = molecular target: T1, human B7H4; experiment: Binding specificity to cells overexpressing human B7 family proteins (flow cytometry); parameters: expressed in transfected cells; details: HEK293T stably expressing the protein, 100 nM or 300 nM
human PD-L2 (B7-DC) = molecular target: T2, human PD-L2 (B7-DC) (Homo sapiens, UniProt Q9BQ51); experiment: as above; details: HEK293T stably expressing the protein, 100 nM or 300 nM
T2 construct: expressed in transfected cells
T2 sequence (Q9BQ51 20-273): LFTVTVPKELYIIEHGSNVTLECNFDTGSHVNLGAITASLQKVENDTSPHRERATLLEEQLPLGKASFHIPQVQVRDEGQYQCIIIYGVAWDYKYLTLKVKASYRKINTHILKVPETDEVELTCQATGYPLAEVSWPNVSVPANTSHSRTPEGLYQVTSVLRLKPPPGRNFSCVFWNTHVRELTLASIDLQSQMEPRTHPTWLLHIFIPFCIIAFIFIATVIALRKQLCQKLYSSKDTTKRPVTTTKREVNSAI

human CD86 (B7-2) = molecular target: T3, human CD86 (B7-2) (Homo sapiens, UniProt P42081); experiment: as above; details: HEK293T stably expressing the protein, 100 nM or 300 nM
T3 construct: expressed in transfected cells
T3 sequence (P42081 24-329): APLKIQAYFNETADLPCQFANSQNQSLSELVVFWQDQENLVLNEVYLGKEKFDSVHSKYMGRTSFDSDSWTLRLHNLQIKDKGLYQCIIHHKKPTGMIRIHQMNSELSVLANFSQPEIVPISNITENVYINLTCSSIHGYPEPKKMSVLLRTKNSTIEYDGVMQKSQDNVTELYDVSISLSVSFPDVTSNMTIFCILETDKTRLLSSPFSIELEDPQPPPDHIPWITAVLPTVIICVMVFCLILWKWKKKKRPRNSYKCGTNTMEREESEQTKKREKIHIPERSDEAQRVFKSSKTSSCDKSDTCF

cynomolgus monkey B7H4 = experiment: Species cross-reactivity, flow cytometry binding to B7H4-transfected HEK293T cells; details: Monkey B7H4-293T
[4] = system: human ovarian cancer cells OVCAR-3 subcutaneous xenograft; experiment: Pharmacodynamic evaluation in tumor-bearing mice (OVCAR-3); format: in vivo
[5] = system: B7H4-overexpressing human colorectal cancer cells HT29 (HT29-B7H4); experiment: In vitro proliferation inhibition of antibody-drug conjugate (2D cell culture, CTG); format: cell-based; details: HT29-B7H4, 10 nM, 7 days
[6] = Pharmacokinetics of antibody-drug conjugate in cynomolgus monkeys; details: cynomolgus monkey, in vivo, iv
human VISTA (B7-H5) = molecular target: T4, human VISTA (B7-H5) (Homo sapiens, UniProt Q9H7M9); experiment: Binding specificity to cells overexpressing human B7 family proteins (flow cytometry); details: HEK293T stably expressing the protein, 100 nM or 300 nM
T4 construct: expressed in transfected cells
T4 sequence (Q9H7M9 33-311): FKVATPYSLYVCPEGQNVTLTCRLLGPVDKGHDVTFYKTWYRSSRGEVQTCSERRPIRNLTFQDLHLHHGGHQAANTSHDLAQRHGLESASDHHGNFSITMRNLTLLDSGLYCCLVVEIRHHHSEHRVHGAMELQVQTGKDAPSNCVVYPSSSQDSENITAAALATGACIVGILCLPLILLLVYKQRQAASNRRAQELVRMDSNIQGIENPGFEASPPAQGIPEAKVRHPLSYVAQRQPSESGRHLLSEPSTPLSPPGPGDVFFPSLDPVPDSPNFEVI

HT29-B7H4 cells = experiment: Bystander killing test, separate incubation (CTG); format: cell-based; details: 10 nM, 7 days
MDA-MB-468 cells = experiment: Endocytosis of antibody-drug conjugate (Fab-pHrodo, FACS); format: cell-based; details: two values per conjugate
human CD80 (B7-1) = molecular target: T5, human CD80 (B7-1) (Homo sapiens, UniProt P33681); experiment: Binding specificity to cells overexpressing human B7 family proteins (flow cytometry); details: HEK293T stably expressing the protein, 100 nM or 300 nM
T5 construct: expressed in transfected cells
T5 sequence (P33681 35-288): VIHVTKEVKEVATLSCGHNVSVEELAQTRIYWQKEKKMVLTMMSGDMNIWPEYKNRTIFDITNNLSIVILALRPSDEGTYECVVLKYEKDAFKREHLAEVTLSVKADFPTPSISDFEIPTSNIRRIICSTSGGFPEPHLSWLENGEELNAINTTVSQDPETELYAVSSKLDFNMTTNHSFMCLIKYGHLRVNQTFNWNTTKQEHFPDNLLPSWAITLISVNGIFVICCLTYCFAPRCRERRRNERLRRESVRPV

human PD-L1 (B7-H1) = molecular target: T6, human PD-L1 (B7-H1) (Homo sapiens, UniProt Q9NZQ7); experiment: as above; details: HEK293T stably expressing the protein, 100 nM or 300 nM
T6 construct: expressed in transfected cells
T6 sequence (Q9NZQ7 19-290): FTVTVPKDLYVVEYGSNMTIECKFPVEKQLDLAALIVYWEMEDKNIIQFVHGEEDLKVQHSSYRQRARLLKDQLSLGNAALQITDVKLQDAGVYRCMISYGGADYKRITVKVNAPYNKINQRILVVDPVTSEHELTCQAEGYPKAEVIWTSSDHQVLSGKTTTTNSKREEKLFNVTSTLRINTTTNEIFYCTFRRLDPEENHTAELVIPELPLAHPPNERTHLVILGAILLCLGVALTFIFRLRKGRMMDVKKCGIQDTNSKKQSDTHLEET

B1: DB1001-X2: anti-B7H4 antibody DB1001 conjugated with linker-cytotoxin X2, DAR 5.4 (conjugate)
heavy: QVQLVESGGGVVQPGRSLRLSCAASGFTFRSFGMHWVRQAPGKGLEWVAVISYDASNEYYADSVKGRFIISRDNSKDTLYLQMNSLRAGDTAVYYCAKGGALRWYFAYWGQGTLVTVSS[in this place human IgG1 constant region]
light: EIVMTQSPATLSVSPGERATLSCRASQSISSNLGWYQQKPGQAPRLLIYGASTRATGIPARFSGSGSGTEFTLTISSLQSEDFAVYYCQQYRSWPPLTFGGGTKVEIKRTVAAPSVFIFPPSDEQLKSGTASVVCLLNNFYPREAKVQWKVDNALQSGNSQESVTEQDSKDSTYSLSSTLTLSKADYEKHKVYACEVTHQGLSSPVTKSFNRGEC
**Q.** For B1, which Tumor volume ([1]; day 0, 3 mg/kg i.v. single injection) is on record?
**A.** The Tumor volume was 172 ± 11 mm^3.

**Q.** And the Tumor volume ([1]; day 0, 10 mg/kg i.v. single injection)?
**A.** The Tumor volume was 170 ± 14 mm^3.

**Q.** What about the Tumor volume ([1]; day 4, 3 mg/kg i.v. single injection) of the same molecule?
**A.** The Tumor volume was 179 ± 10 mm^3.

**Q.** What about the Tumor volume ([1]; day 4, 10 mg/kg i.v. single injection) of the same molecule?
**A.** The Tumor volume was 173 ± 14 mm^3.

**Q.** And the Tumor volume ([1]; day 7, 3 mg/kg i.v. single injection)?
**A.** Its Tumor volume is 143 ± 8 mm^3.

**Q.** And the Tumor volume ([1]; day 7, 10 mg/kg i.v. single injection)?
**A.** Its Tumor volume is 93 ± 11 mm^3.

**Q.** What about the Tumor volume ([1]; day 11, 3 mg/kg i.v. single injection) of the same molecule?
**A.** The Tumor volume was 67 ± 3 mm^3.

**Q.** And the Tumor volume ([1]; day 11, 10 mg/kg i.v. single injection)?
**A.** Its Tumor volume is 38 ± 1 mm^3.

**Q.** What about the Tumor volume ([1]; day 14, 3 mg/kg i.v. single injection) of the same molecule?
**A.** The Tumor volume was 56 ± 3 mm^3.

**Q.** What about the Tumor volume ([1]; day 14, 10 mg/kg i.v. single injection) of the same molecule?
**A.** Its Tumor volume is 32 ± 1 mm^3.

**Q.** What about the Tumor volume ([1]; day 18, 3 mg/kg i.v. single injection) of the same molecule?
**A.** The Tumor volume was 48 ± 2 mm^3.

**Q.** And the Tumor volume ([1]; day 18, 10 mg/kg i.v. single injection)?
**A.** The Tumor volume was 25 ± 1 mm^3.

**Q.** What about the T/C ([1]; day 21, 3 mg/kg) of the same molecule?
**A.** The T/C was 13.78%.

**Q.** What about the TGI ([1]; day 21, 3 mg/kg) of the same molecule?
**A.** Its TGI is 151.33%.

**Q.** What about the Tumor volume ([1]; day 21, 3 mg/kg i.v. single injection) of the same molecule?
**A.** Its Tumor volume is 55 ± 3 mm^3.

**Q.** And the T/C ([1]; day 21, 10 mg/kg)?
**A.** The T/C was 4.97%.

**Q.** And the TGI ([1]; day 21, 10 mg/kg)?
**A.** Its TGI is 165.84%.

**Q.** And the Tumor volume ([1]; day 21, 10 mg/kg i.v. single injection)?
**A.** The Tumor volume was 20 ± 0 mm^3.

**Q.** What about the MFI.Max (human B7H4 [2]) of the same molecule?
**A.** The MFI.Max was 10312.

**Q.** And the “binding to human B7-H4” value (human B7H4 [3])?
**A.** The value was “bound”.

**Q.** What about the “binding to B7-DC” value (human PD-L2 (B7-DC)) of the same molecule?
**A.** Its value is “not detected”.

**Q.** What about the “binding to B7-2” value (human CD86 (B7-2)) of the same molecule?
**A.** Its value is “not detected”.

**Q.** What about the MFI.Max (cynomolgus monkey B7H4) of the same molecule?
**A.** The MFI.Max was 10869.

**Q.** What about the T/C ([4]; OVCAR-3, day 27, 1 mg/kg) of the same molecule?
**A.** The T/C was 34.15%.

**Q.** What about the TGI ([4]; OVCAR-3, day 27, 1 mg/kg) of the same molecule?
**A.** Its TGI is 65.85%.

**Q.** And the Tumor volume ([4]; OVCAR-3, day 27, 1 mg/kg i.v. once every two weeks x2, mean ± standard error)?
**A.** Its Tumor volume is 390.93 ± 85.40 mm^3.

**Q.** And the T/C ([4]; OVCAR-3, day 27, 3 mg/kg)?
**A.** The T/C was 10.74%.

**Q.** And the TGI ([4]; OVCAR-3, day 27, 3 mg/kg)?
**A.** Its TGI is 89.26%.

**Q.** And the Tumor volume ([4]; OVCAR-3, day 27, 3 mg/kg i.v. once every two weeks x2, mean ± standard error)?
**A.** The Tumor volume was 122.94 ± 17.80 mm^3.

**Q.** What about the T/C ([4]; OVCAR-3, day 27, 10 mg/kg) of the same molecule?
**A.** Its T/C is 4.17%.

**Q.** What about the TGI ([4]; OVCAR-3, day 27, 10 mg/kg) of the same molecule?
**A.** The TGI was 95.83%.

**Q.** And the Tumor volume ([4]; OVCAR-3, day 27, 10 mg/kg i.v. once every two weeks x2, mean ± standard error)?
**A.** The Tumor volume was 47.72 ± 7.95 mm^3.

**Q.** And the Cell viability [5]?
**A.** Its Cell viability is 28.0%.

**Q.** What about the AUC0-t ([6]; 30 mg/kg) of the same molecule?
**A.** Its AUC0-t is 51863.287 µg·h/mL.

**Q.** What about the T1/2 ([6]; 30 mg/kg) of the same molecule?
**A.** Its T1/2 is 164.9 h.

**Q.** What about the AUC0-t ([6]; 80 mg/kg) of the same molecule?
**A.** The AUC0-t was 183899.767 µg·h/mL.

**Q.** What about the T1/2 ([6]; 80 mg/kg) of the same molecule?
**A.** Its T1/2 is 218.5 h.

**Q.** What about the “binding to B7-H5” value (human VISTA (B7-H5)) of the same molecule?
**A.** Its value is “not detected”.

**Q.** And the “HT29-B7H4 cell viability, Separate incubation” value (HT29-B7H4 cells)?
**A.** Its value is 28.0%.

**Q.** What about the Fluorescence value (MDA-MB-468 cells; MDA-MB-468, sample concentration 0.000384 nM) of the same molecule?
**A.** The Fluorescence value was 98.2 and 98.1.

**Q.** And the Fluorescence value (MDA-MB-468 cells; MDA-MB-468, sample concentration 0.00192 nM)?
**A.** Its Fluorescence value is 96.6 and 97.4.

**Q.** And the Fluorescence value (MDA-MB-468 cells; MDA-MB-468, sample concentration 0.0096 nM)?
**A.** The Fluorescence value was 97.1 and 98.2.

**Q.** What about the Fluorescence value (MDA-MB-468 cells; MDA-MB-468, sample concentration 0.048 nM) of the same molecule?
**A.** The Fluorescence value was 97.8 and 104.

**Q.** And the Fluorescence value (MDA-MB-468 cells; MDA-MB-468, sample concentration 0.24 nM)?
**A.** Its Fluorescence value is 219 and 235.

**Q.** What about the Fluorescence value (MDA-MB-468 cells; MDA-MB-468, sample concentration 1.2 nM) of the same molecule?
**A.** The Fluorescence value was 119 and 130.

**Q.** What about the Fluorescence value (MDA-MB-468 cells; MDA-MB-468, sample concentration 6 nM) of the same molecule?
**A.** Its Fluorescence value is 219 and 235.

**Q.** What about the Fluorescence value (MDA-MB-468 cells; MDA-MB-468, sample concentration 30 nM) of the same molecule?
**A.** Its Fluorescence value is 343 and 327.

**Q.** And the “binding to B7-1” value (human CD80 (B7-1))?
**A.** The value was “not detected”.

**Q.** And the “binding to B7-H1” value (human PD-L1 (B7-H1))?
**A.** Its value is “not detected”.

Where “and” joins values, the source holds several entries; their conditions need not be identical. Equal entries are not always repeated.
